Experimental data published in paper PMC12486440, “Design, synthesis, and in silico studies of new benzofuran–pyrazole hybrids as multi-kinase inhibitors with potential antiproliferative activity” (RSC Advances, 2025).

system: NCI-H322M; test: not given; conditions: single dose 10 μM; non-small lung carcinoma

Row | Compound | GI% [%]
1 | 3-(5-(Benzofuran-2-yl)-1-phenyl-1H-pyrazol-3-yl)-1-(4-methoxyphenyl)prop-2-en-1-one [2b] | 2.02
2 | c1ccc(C2=NNC(c3cn(-c4ccccc4)nc3-c3cc4ccccc4o3)C2)cc1 (stereo not shown) [3a, 3-(Benzofuran-2-yl)-4-(3-phenyl-4,5-dihydro-1H-pyrazol-5-yl)-1-phenyl-1H-pyrazole] | 1.85
3 | COc1ccc(C2=NNC(c3cn(-c4ccccc4)nc3-c3cc4ccccc4o3)C2)cc1 (stereo not shown) [3b, 3-(Benzofuran-2-yl)-4-(3-(4-methoxyphenyl)-4,5-dihydro-1H-pyrazol-5-yl)-1-phenyl-1H-pyrazole] | 2.93
4 | COc1ccc(C2=NNC(c3cn(-c4ccccc4)nc3-c3cc4ccccc4o3)C2)cc1OC (stereo not shown) [3c, 3-(Benzofuran-2-yl)-4-(3-(3,4-dimethoxyphenyl)-4,5-dihydro-1H-pyrazol-5-yl)-1-phenyl-1H-pyrazole] | 41.54
5 | c1ccc(-n2cc(C3CC(c4nc5ccccc5[nH]4)=NN3)c(-c3cc4ccccc4o3)n2)cc1 (stereo not shown) [3d, 3-(Benzofuran-2-yl)-4-(3-(1H-benzo[d]imidazol-2-yl)-4,5-dihydro-1H-pyrazol-5-yl)-1-phenyl-1H-pyrazole] | 85.31
6 | CC(=O)N1N=C(c2ccccc2)CC1c1cn(-c2ccccc2)nc1-c1cc2ccccc2o1 (stereo not shown) [4a, 1-(5-(3-(Benzofuran-2-yl)-1-phenyl-1H-pyrazol-4-yl)-3-phenyl-4,5-dihydropyrazol-1-yl)ethanone] | 2.33
7 | COc1ccc(C2=NN(C(C)=O)C(c3cn(-c4ccccc4)nc3-c3cc4ccccc4o3)C2)cc1 (stereo not shown) [4b, 1-(5-(3-(Benzofuran-2-yl)-1-phenyl-1H-pyrazol-4-yl)-3-(4-methoxyphenyl)-4,5-dihydropyrazol-1-yl)ethanone] | 3.11
8 | COc1ccc(C2=NN(C(C)=O)C(c3cn(-c4ccccc4)nc3-c3cc4ccccc4o3)C2)cc1OC (stereo not shown) [4c, 1-(5-(3-(Benzofuran-2-yl)-1-phenyl-1H-pyrazol-4-yl)-3-(3,4-dimethoxyphenyl)-4,5-dihydropyrazol-1-yl)ethanone] | 2.32
9 | CC(=O)N1N=C(c2nc3ccccc3[nH]2)CC1c1cn(-c2ccccc2)nc1-c1cc2ccccc2o1 (stereo not shown) [4d, 1-(5-(3-(Benzofuran-2-yl)-1-phenyl-1H-pyrazol-4-yl)-3-(1H-benzo[d]imidazol-2-yl)-4,5-dihydropyrazol-1-yl)ethanone] | 2.19

system: NCI-H322M; test: cells; conditions: Homo sapiens

Row | Compound | GI50 [µM]
10 | c1ccc(-n2cc(C3CC(c4nc5ccccc5[nH]4)=NN3)c(-c3cc4ccccc4o3)n2)cc1 (stereo not shown) [3d, 3-(Benzofuran-2-yl)-4-(3-(1H-benzo[d]imidazol-2-yl)-4,5-dihydro-1H-pyrazol-5-yl)-1-phenyl-1H-pyrazole] | 3.77
